# Screen size: about 110,000 compounds; about 230 (0.21%) showed an effect of 50% or more. The list shows a part of the results.
# Biological target: DPAP1 (Plasmodium falciparum, UniProt Q8IIJ9)
# Assay: primary screen, percent inhibition; read by cleavage of a fluorogenic dipeptide substrate; higher = more effect of the substance
# Parameters: species or system P. falciparum D10 trophozoite lysates; single well
# 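Also: 30 min substrate incubation versus DMSO and 10 µM JCP410 controls.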
# Sequence of DPAP1 (Q8IIJ9 whole entry, looked up): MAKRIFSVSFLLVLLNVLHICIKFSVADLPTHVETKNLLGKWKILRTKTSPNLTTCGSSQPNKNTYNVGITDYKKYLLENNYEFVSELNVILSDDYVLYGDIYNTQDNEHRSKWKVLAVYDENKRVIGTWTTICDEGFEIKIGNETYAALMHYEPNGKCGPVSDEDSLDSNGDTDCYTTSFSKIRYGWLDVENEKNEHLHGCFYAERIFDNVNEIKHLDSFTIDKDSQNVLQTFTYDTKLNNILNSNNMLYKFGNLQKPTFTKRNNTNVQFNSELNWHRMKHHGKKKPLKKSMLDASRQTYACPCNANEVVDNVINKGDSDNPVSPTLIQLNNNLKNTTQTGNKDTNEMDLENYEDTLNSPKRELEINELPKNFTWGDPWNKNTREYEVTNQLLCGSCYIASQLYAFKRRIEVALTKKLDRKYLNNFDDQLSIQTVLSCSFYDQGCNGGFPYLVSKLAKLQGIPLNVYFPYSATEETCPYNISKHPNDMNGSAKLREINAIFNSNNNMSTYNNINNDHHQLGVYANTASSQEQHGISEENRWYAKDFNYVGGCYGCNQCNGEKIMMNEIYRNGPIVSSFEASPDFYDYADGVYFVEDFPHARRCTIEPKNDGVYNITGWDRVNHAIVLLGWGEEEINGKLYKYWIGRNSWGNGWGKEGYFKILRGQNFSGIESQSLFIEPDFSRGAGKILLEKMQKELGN
row,SMILES,% Inhibition @ 10 uM
1,Cc1cc(C)c(C(=O)CC(N2CCOCC2)C(F)(F)F)c(O)n1 (centres unmarked),3.81%
2,O=C(NCC1CCCO1)c1ccc(CSCc2ccc(Cl)cc2)o1 (centres unmarked),-3.12%
3,COc1ccc(OC)c(NC(=O)c2sc3nc4c(cc3c2N)CCCC4)c1,-2.32%
4,Cc1ccc2onc(CC(=O)NCCCOC(C)C)c2c1,-6.01%
5,COc1ccc(CN2C(=O)c3cccnc3C2=O)cc1S(=O)(=O)N(C)C1CCCCC1,6.34%
6,Cc1nc(=O)c(-c2ccccc2)c(C)n1CCOC12CC3CC(CC(C3)C1)C2,1.63%
7,CCc1ccc(S(=O)(=O)c2nnn(-c3cccc(OC)c3)c2N)cc1,-3.85%
8,CCOC(=O)c1c(SC)n[nH]c1N,1.02%
9,CCOc1ccc(Cc2c(O)ncnc2O)cc1,-4.4%
10,Clc1ccccc1-c1nnc(SCc2ccccc2)o1,5.09%
11,CC(=O)c1ccc2c(c1)[nH]c1cc(C(C)=O)ccc12,-4.97%
12,O=C(COCc1cc(-c2ccc3c(c2)OCO3)on1)NCc1cccnc1,3.12%
13,O=C(C1=C(O)C(=O)N(c2ccc(F)cc2)C1c1ccc(F)cc1)c1ccccc1 (centres unmarked),1.83%
14,CCOP(=O)(OCC)C(Nc1ccc(Cl)c(Cl)c1)c1ccc(Br)cc1 (centres unmarked),0.00178%
15,C(=C\c1ccccc1)/CN1CCN(c2ccccc2)CC1,-4.04%
16,N=C1/C(=C\c2coc3ccccc3c2=O)C(=O)N=C2SC(SCCOc3ccccc3)=NN12,-7.65%
17,Cc1ccccc1C(=O)Nc1ccccc1C(F)(F)F,6.8%
18,COc1ccc(S(=O)(=O)Nc2ccc(C(=O)O)cc2)cc1,-1.82%
19,O=C(CCNS(=O)(=O)c1cccc2nsnc12)NC1CCN(Cc2ccccc2)CC1,-1.2%
20,CCOc1ccccc1NC(=O)CN(c1ccc(C)cc1)S(=O)(=O)c1ccccc1,5.28%
21,CCC(C(=O)NCc1cccc(Cl)c1)n1nc(C)c2sc3ccccc3c2c1=O (centres unmarked),-4.43%
22,O=C(Nc1cccc2nsnc12)c1cc(Br)ccc1NS(=O)(=O)c1ccc(Cl)cc1,3.01%

row,SMILES,% Inhibition @ 10 uM
1,CCOC(=O)C1=CN(C)C=C(C(=O)OCC)C1c1cc(OC)ccc1OC,-5.05%
2,CC(=O)c1ccc(NS(=O)(=O)c2c(C)cc(C)cc2C)cc1,5.29%
3,COc1ccc(S(=O)(=O)N(CC(=O)Nc2ccc(CC#N)cc2)c2cccc(Cl)c2)cc1,5.08%
4,CCO/C(O)=C1\C(C)=NC2(O)c3ccccc3C(=O)C12O (centres unmarked),0.989%
5,O=C(Nc1nc(-c2ccc(S(=O)(=O)N3CCCC3)cc2)cs1)c1ccccc1Cl,-4.66%
6,CC1CCN(S(=O)(=O)c2ccc(NC(=O)c3cccc(Br)c3)cc2)CC1,5.85%
7,O=C1N=C(N2CCOCC2)S/C1=C/c1ccccc1O,0.343%
8,C=CCNC(=O)/C(=C/c1ccccc1)NC(=O)c1ccc(OC)cc1,2.36%
9,Cc1ccccc1S(=O)(=O)Cc1ccc(C(=O)N(C)C2CCCCC2)o1,0.718%
10,COc1ccc(N(CC(=O)N2CCc3ccccc3C2)S(=O)(=O)c2ccc(C)cc2)cc1OC,2.75%
11,CCOC(=O)N1CCN(C(=O)C2CC(c3ccccc3OC)=NO2)CC1 (centres unmarked),3.2%
12,CCn1c(C)cc(/C=C2/NC(=O)N(Cc3ccccc3F)C2=O)c1C,-13%
13,COc1ccc(-c2nc3c(c(SCC(N)=O)n2)Cc2cc(C)ccc2O3)cc1,-6.52%
14,COc1ccccc1NC(=O)CC1Nc2ccccc2NC1=O (centres unmarked),4.63%
15,Nc1nc2ccccc2n1Cc1ccccc1Cl,-6.88%
16,Oc1ccc(CNCCc2c[nH]c3ccccc23)cc1,2.02%
17,N#Cc1nn(C(=O)c2ccccc2)c(N)c1C#N,2.57%
18,CC1=C(C#N)C(c2ccc(Cl)cc2)C2=C(O)CC(C)(C)CC2=N1 (centres unmarked),-2.24%
19,COc1ccccc1C1=NOC(COC(=O)c2ccc3ccccc3n2)C1 (centres unmarked),3.54%
20,O=C(CNS(=O)(=O)c1ccccc1)NCc1cccnc1,3.68%
21,Cc1noc(C(=O)NCC(C)C)c1Cl,-3.45%
22,Cc1ccc(C)c(N(CC(=O)NCc2ccco2)S(=O)(=O)c2ccccc2)c1,-9.75%

row,SMILES,% Inhibition @ 10 uM
1,COc1ccc(C2C(C#N)=C(N)Oc3cccc(O)c32)cc1 (centres unmarked),-3.26%
2,CC(C)(C)S(=O)(=O)c1ccc2nc3c(n2c1)CCCC3,-1.76%
3,CC(=O)Nc1ccc(NC(=S)NC(=O)c2ccccc2)cc1,-1.8%
4,Cc1ccc(C(=O)/C=C/c2cn(CC(O)CN3CCN(C)CC3)c3ccccc23)cc1 (centres unmarked),3.24%
5,CCCCN(CC)C(=O)c1cc2ccc3cccnc3c2[nH]1,3.44%
6,CC(=O)c1ccc(C(=O)N(CCCN(C)C)c2nc3ccc(C)cc3s2)cc1,-0.0255%
7,CCOC(=O)N1CCC(NC(=O)CCc2c(C)nc3ncnn3c2C)CC1,-2.25%
8,Cc1ccc2c(c1)-c1onc(C(=O)N3CCC(c4ccccc4)C3)c1CO2 (centres unmarked),2.24%
9,Cc1nc2cccc(C(=O)NCCc3c(C)[nH]c4ccc(F)cc34)c2o1,-4.49%
10,Cc1cc(C)cc(NCc2ccccn2)c1,1.84%
11,CC1=C(C(=O)Nc2ccccc2C)C(c2ccc(F)cc2)C2=C(O)CCCC2=N1 (centres unmarked),-4.72%
12,Cc1ccc(C(O)c2ccncc2)cc1 (centres unmarked),2.01%
13,Cc1cc(C)n(-c2cc(N(C)C)nc(C)n2)n1,12.6%
14,Cc1cc2nc(C)n(Cc3ccc(F)cc3)c2cc1C,5.39%
15,CSC1=NSC2=NC(=O)/C(=C\c3coc4ccccc4c3=O)C(=N)N12,1.15%
16,O=C(O)/C=C\C(=O)Nc1cccc(Cl)c1,-5.41%
17,Cc1ccccc1Nc1nc2c(s1)CCCC2,21.4%
18,COc1cc2c(cc1OC)C(C(=O)Nc1nc3ccccc3s1)C(c1cccs1)N(C)C2=O (centres unmarked),7.57%
19,O=C(NCCc1c[nH]c2ccccc12)c1cc2c(s1)CS(=O)(=O)C2,-2.34%
20,Cc1c(C#N)c(=O)ncn1Cc1ccccc1,0.98%
21,NC(=O)c1cc(S(=O)(=O)N2CCC(Cc3ccccc3)CC2)cs1,-2.85%
